# Laboratory results taken from the supplement of paper PMC9927326.
# What was measured:
# Experiment in all cases: CLSI broth microdilution.
# posaconazole = compound: CC[C@@H]([C@H](C)O)n1ncn(-c2ccc(N3CCN(c4ccc(OC[C@@H]5CO[C@@](Cn6cncn6)(c6ccc(F)cc6F)C5)cc4)CC3)cc2)c1=O [posaconazole]
# amphotericin B = compound: C[C@@H]1[C@H](O)[C@@H](C)/C=C/C=C/C=C/C=C/C=C/C=C/C=C/[C@H](O[C@@H]2O[C@H](C)[C@@H](O)[C@H](N)[C@@H]2O)C[C@@H]2O[C@](O)(C[C@@H](O)C[C@@H](O)[C@H](O)CC[C@@H](O)C[C@@H](O)CC(=O)O[C@H]1C)C[C@H](O)[C@H]2C(=O)O [amphotericin B]
# micafungin = compound: CCCCCOc1ccc(-c2cc(-c3ccc(C(=O)N[C@H]4C[C@@H](O)[C@@H](O)NC(=O)[C@@H]5[C@@H](O)[C@@H](C)CN5C(=O)[C@H]([C@H](O)CC(N)=O)NC(=O)[C@H]([C@H](O)[C@@H](O)c5ccc(O)c(OS(=O)(=O)O)c5)NC(=O)[C@@H]5C[C@@H](O)CN5C(=O)[C@H]([C@@H](C)O)NC4=O)cc3)no2)cc1 [micafungin]
# voriconazole = compound: C[C@@H](c1ncncc1F)[C@](O)(Cn1cncn1)c1ccc(F)cc1F [voriconazole]
# fluconazole = compound: OC(Cn1cncn1)(Cn1cncn1)c1ccc(F)cc1F [fluconazole]
# flucytosine = compound: Nc1[nH]c(=O)ncc1F [flucytosine]
# itraconazole = compound: CCC(C)n1ncn(-c2ccc(N3CCN(c4ccc(OCC5COC(Cn6cncn6)(c6ccc(Cl)cc6Cl)O5)cc4)CC3)cc2)c1=O [itraconazole]
# anidulafungin = compound: CCCCCOc1ccc(-c2ccc(-c3ccc(C(=O)N[C@H]4C[C@@H](O)[C@@H](O)NC(=O)[C@@H]5[C@@H](O)[C@@H](C)CN5C(=O)[C@H]([C@@H](C)O)NC(=O)[C@H]([C@H](O)[C@@H](O)c5ccc(O)cc5)NC(=O)[C@@H]5C[C@@H](O)CN5C(=O)[C@H]([C@@H](C)O)NC4=O)cc3)cc2)cc1 [anidulafungin]
# caspofungin = compound: CC[C@H](C)C[C@H](C)CCCCCCCCC(=O)N[C@H]1C[C@@H](O)[C@@H](NCCN)NC(=O)[C@@H]2[C@@H](O)CCN2C(=O)[C@H]([C@H](O)CCN)NC(=O)[C@H]([C@H](O)[C@@H](O)c2ccc(O)cc2)NC(=O)[C@@H]2C[C@@H](O)CN2C(=O)[C@H]([C@@H](C)O)NC1=O [caspofungin]
Test System,MIC (posaconazole),MIC (amphotericin B),MIC (micafungin),MIC (voriconazole),MIC (fluconazole),MIC (flucytosine),MIC (itraconazole),MIC (anidulafungin),MIC (caspofungin)
"Candida albicans isolate 18 (Erg11p: E266D, Fur1p: WT, Tac1p: T885K,I558V,A430V,A377V,M170V)",0.015 mg/L [S],0.25 mg/L [S],≤ 0.008 mg/L [S],≤ 0.008 mg/L [S],0.25 mg/L [S],≤ 0.06 mg/L [S],≤ 0.015 mg/L [S],≤ 0.015 mg/L [S],0.03 mg/L [S]
"Candida albicans isolate 19 (Erg11p: WT, Fur1p: S8N, Tac1p: N896S)",0.03 mg/L [S],0.25 mg/L [S],≤ 0.008 mg/L [S],≤ 0.008 mg/L [S],0.25 mg/L [S],0.12 mg/L [S],0.06 mg/L [S],0.06 mg/L [S],0.12 mg/L [S]
"Candida albicans isolate 20 (Erg11p: WT, Fur1p: WT, Tac1p: I558V,A377V,F189S,N174D,M170I,K87N)",0.06 mg/L [S],0.5 mg/L [S],0.015 mg/L [S],0.03 mg/L [S],1 mg/L [S],≤ 0.06 mg/L [S],0.06 mg/L [S],≤ 0.015 mg/L [S],0.06 mg/L [S]
"Candida albicans isolate 21 (Erg11p: Y132H,T123I, Fur1p: R101C, Tac1p: WT)",0.06 mg/L [S],0.5 mg/L [S],0.015 mg/L [S],0.5 µg/mL,4 µg/mL,≤ 0.06 mg/L [S],0.25 mg/L [R],≤ 0.015 mg/L [S],0.015 mg/L [S]
"Candida albicans isolate 22 (Erg11p: V488I,E266D,Y132H,T123I, Fur1p: R101C, Tac1p: M170V,S108N)",0.015 mg/L [S],0.5 mg/L [S],0.015 mg/L [S],≤ 0.008 mg/L [S],0.5 mg/L [S],≤ 0.06 mg/L [S],0.03 mg/L [S],0.06 mg/L [S],0.06 mg/L [S]
"Candida albicans isolate 23 (Erg11p: E266D, Fur1p: R101C, Tac1p: T885K,I558V,A430V,A377V,F189S,N174D,M170I,M170V,K87N)",0.015 mg/L [S],0.5 mg/L [S],0.015 mg/L [S],≤ 0.008 mg/L [S],0.25 mg/L [S],≤ 0.06 mg/L [S],≤ 0.015 mg/L [S],≤ 0.015 mg/L [S],0.03 mg/L [S]
"Candida albicans isolate 24 (Erg11p: WT, Fur1p: WT, Tac1p: I558V,A377V,F189S,N174D,M170I,K87N)",0.015 mg/L [S],0.5 mg/L [S],≤ 0.008 mg/L [S],≤ 0.008 mg/L [S],0.25 mg/L [S],≤ 0.06 mg/L [S],≤ 0.015 mg/L [S],0.06 mg/L [S],0.03 mg/L [S]
"Candida albicans isolate 25 (Erg11p: WT, Fur1p: WT, Tac1p: N896S)",0.015 mg/L [S],0.5 mg/L [S],≤ 0.008 mg/L [S],≤ 0.008 mg/L [S],0.25 mg/L [S],≤ 0.06 mg/L [S],0.03 mg/L [S],0.03 mg/L [S],0.03 mg/L [S]
"Candida albicans isolate 26 (Erg11p: WT, Fur1p: WT, Tac1p: N896S)",0.12 mg/L [R],1 mg/L [S],0.03 mg/L [S],0.06 mg/L [S],1 mg/L [S],≤ 0.06 mg/L [S],0.12 mg/L [S],0.12 mg/L [S],0.03 mg/L [S]
"Candida albicans isolate 27 (Erg11p: WT, Fur1p: WT, Tac1p: N896S)",0.015 mg/L [S],0.25 mg/L [S],≤ 0.008 mg/L [S],≤ 0.008 mg/L [S],0.5 mg/L [S],≤ 0.06 mg/L [S],0.03 mg/L [S],0.03 mg/L [S],0.03 mg/L [S]
"Candida albicans isolate 28 (Erg11p: V488I,E266D, Fur1p: WT, Tac1p: N896S,N174D,M170I,K87N)",0.015 mg/L [S],0.5 mg/L [S],≤ 0.008 mg/L [S],≤ 0.008 mg/L [S],0.5 mg/L [S],≤ 0.06 mg/L [S],0.03 mg/L [S],≤ 0.015 mg/L [S],0.015 mg/L [S]
"Candida albicans isolate 29 (Erg11p: WT, Fur1p: WT, Tac1p: A377V,F189S,N174D,M170I,K87N)",0.03 mg/L [S],0.5 mg/L [S],≤ 0.008 mg/L [S],≤ 0.008 mg/L [S],≤ 0.12 mg/L [S],≤ 0.06 mg/L [S],0.06 mg/L [S],0.06 mg/L [S],0.06 mg/L [S]
"Candida albicans isolate 30 (Erg11p: K342R,H283L,E266D, Fur1p: WT, Tac1p: I558V,A377V,F189S,N174D,M170I,K87N)",0.03 mg/L [S],0.5 mg/L [S],≤ 0.008 mg/L [S],≤ 0.008 mg/L [S],0.5 mg/L [S],≤ 0.06 mg/L [S],0.03 mg/L [S],0.06 mg/L [S],0.12 mg/L [S]
"Candida albicans isolate 31 (Erg11p: E266D, Fur1p: WT, Tac1p: N896S,A377V,F189S,N174D,M170I,M170V,K87N,T9A)",0.12 mg/L [R],1 mg/L [S],0.015 mg/L [S],≤ 0.008 mg/L [S],0.5 mg/L [S],≤ 0.06 mg/L [S],0.12 mg/L [S],0.06 mg/L [S],0.06 mg/L [S]
"Candida albicans isolate 32 (Erg11p: V488I,E266D, Fur1p: WT, Tac1p: N896S,I895T)",0.03 mg/L [S],0.5 mg/L [S],0.015 mg/L [S],≤ 0.008 mg/L [S],0.5 mg/L [S],≥ 64 mg/L [R],0.12 mg/L [S],≤ 0.015 mg/L [S],0.03 mg/L [S]
"Candida albicans isolate 33 (Erg11p: WT, Fur1p: WT, Tac1p: I558V,A377V,F189S,N174D,M170I,K87N)",0.015 mg/L [S],0.5 mg/L [S],≤ 0.008 mg/L [S],≤ 0.008 mg/L [S],0.25 mg/L [S],≤ 0.06 mg/L [S],≤ 0.015 mg/L [S],0.12 mg/L [S],0.03 mg/L [S]
"Candida albicans isolate 34 (Erg11p: V488I,E266D, Fur1p: WT, Tac1p: N896S,I895T)",0.015 mg/L [S],0.25 mg/L [S],0.015 mg/L [S],≤ 0.008 mg/L [S],0.5 mg/L [S],≤ 0.06 mg/L [S],0.03 mg/L [S],0.12 mg/L [S],0.06 mg/L [S]

# MIC of clinical C. albicans isolates, CLSI broth microdilution (ranges and time not stated); higher = less susceptible. Call: susceptible or wild type [S] / resistant or non-wild type [R] by CLSI breakpoints or epidemiological cut-offs; intermediate and dose-dependent carry no call here (the paper groups them with resistant). '<=' and '>=' mark each drug's lowest and highest value, inferred; the source prints them plain. Isolates are numbered anew.
